Measurements taken from PubChem BioAssay (NCI).
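Where inhibition never reached the appropriate level, the endpoint shown equals the highest concentration tested. Otherwise, values were interpolated linearly from a five-concentration, 48-hour dose response in 96-well plates. The concentration for 50% growth inhibition is given as GI50. TGI is the concentration that stops growth completely.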

The compounds below were run on NCI-H322M lung (assay: NCI-60 cell line screen, 48 h).

Row | Compound | TGI [µM] | GI50 [µM]
1 | C[N+](C)(C)CCN[N+]1(C)CCCc2ccccc21 (centres undefined) | > 100 | –
2 | CCCCC(C(=O)CCC(=O)Nc1ccc(Cl)cc1)C(=O)C(C)C (centres undefined) | > 100 | –
3 | Nc1nc(OCC2CCCCC2)c2[nH]cnc2n1 | 66 | –
4 | CCOC(=O)Nc1cc2c(c(N)n1)N=C(c1ccc3ccccc3c1)CN2 | > 76.5 | –
5 | CCOC(=O)c1c2ccc(/C=C/c3ccccc3)ccc-2c(C(=O)OCC)c1N | > 100 | –
6 | CC1OC(OCC2OC(Oc3ccc(C4CC(=O)c5c(O)cc(O)cc5O4)cc3O)C(O)C(O)C2O)C(O)C(O)C1O (centres undefined) | > 100 | –
7 | C=C1CC(C)(COc2ccc3c(C)cc(=O)oc3c2)OC1=O (centres undefined) | 21.8 | –
8 | COc1cc(/C=C/c2ccccn2)cc(OC)c1OC | > 10 | –
9 | Cc1c2cc[n+](C)cc2c(C)c2c1oc1ccccc12 | 35 | –
10 | O=C1C(Br)=CC2(C=C1Br)CCNc1c(O)c3c4c(c12)=NCCC=4C=N3 | 2.86 | –
11 | N#CC1C(=O)NC(=O)C1=O (centres undefined) | > 100 | –
12 | N#CCC1(c2ccc(Cl)cc2)NC(=O)c2ccccc21 (centres undefined) | > 100 | –
13 | O=C1CSC(c2ccccc2O)N1c1nc2cc3sc(N4C(=O)CSC4c4ccccc4O)nc3cc2s1 (centres undefined) | > 100 | –
14 | Cc1cc(N)cc(C)c1-c1c(Br)cc(N)cc1Br | > 100 | 8.63
15 | CN(C)c1ccc(/C=c2/c3ccccc3n3c2cc(NC(=O)NCCC[N+](C)(C)C)[n+]3C)cc1 | > 100 | –
16 | COc1ccc2c(c1)N(CCO)C1=C(C(=O)OC1)C2c1ccc(OC)c(OC)c1 (centres undefined) | > 100 | 4.57
17 | CO/N=C(\C)c1cccc(Nc2nc3ccccc3c3occc23)c1 | 27.2 | –
18 | O=C(Nc1ncc([N+](=O)[O-])s1)c1ccccc1O | > 86.3 | –
19 | Cc1cc(-c2cscn2)c(O)c([N+](=O)[O-])c1 | > 100 | –
20 | C[C@H](c1ccccc1)N(CCC(=O)O)C(=O)CCN(C(=O)CCN(C(=O)CCN[C@H](C)c1ccccc1)[C@H](C)c1ccccc1)[C@H](C)c1ccccc1 | > 100 | > 100
21 | c1ccc2c(c1)N=C(c1ccc3ccccc3c1)CC(c1cccc3ccccc13)S2 (centres undefined) | > 100 | –
22 | CCOC(=O)CC(NCc1ccc(N=Cc2nc3ccc(C(F)(F)F)cc3nc2-c2ccccc2)cc1)C(=O)OCC (centres undefined) | > 100 | –
23 | COC1=CC(=O)C2C(C1=O)C(c1ccc(Cl)cc1)[C@@H]2C (some centres undefined) | > 100 | –
24 | CSc1nc(Br)nc2ncn(C3CC(Oc4ccc(C)cc4)C(COc4ccc(C)cc4)O3)c12 (centres undefined) | > 100 | –
25 | Fc1ccc(C2C3CCOc4c(ccc5ccccc45)C3=NN2c2ccccc2)cc1 (centres undefined) | > 100 | > 100

Row | Compound | TGI [µM] | GI50 [µM]
26 | CCCCc1ccc(Nc2nc(Cl)c3ncn(C4CC(Oc5ccc(C)cc5)C(COc5ccc(C)cc5)O4)c3n2)cc1 (centres undefined) | > 100 | –
27 | COc1cc2c(cc1O)C1CC(CC3CCCCN31)OC(=O)/C=C\c1ccc(O)c-2c1 (centres undefined) | 68.1 | –
28 | O=c1c2cc(S(=O)(=O)O)ccc2nc(COc2ccc(Oc3ccc(Cl)cc3Cl)cc2)n1C(=S)Nc1ccc(Cl)cc1 | > 100 | –
29 | CC/C(=N/N=C(N)N)c1ccc(NC(=O)Nc2ccc(/C(CC)=N/N=C(N)N)cc2)cc1 | 39.6 | 16.2
30 | Cc1ccc(N=NC(C2=NC(=O)CS2)c2nc3ccccc3[nH]2)cc1 (centres undefined) | > 100 | –
31 | O=C(NCCCNCCCCNCCCNC(=O)c1cc(-c2ccccc2)nc2ccccc12)c1cc(-c2ccccc2)nc2ccccc12 | 16.3 | –
32 | CCN1C(=O)N(CC)C2C1NN=c1s/c(=C\c3ccc(OC)cc3)c(=O)n12 (centres undefined) | > 100 | 0.607
33 | O=C(/C=C/c1ccccc1)OCC1=C[C@@H](O)[C@@H]2C=CO[C@@H](OC3OC(CO)C(O)C(O)C3O)[C@H]12 (some centres undefined) | > 100 | –
34 | CC1(C=O)CCC23COC4(CCC5C6(C)CCC(OC7OCC(OC8OC(CO)C(O)C(OC9OC(CO)C(O)C(O)C9O)C8OC8OCC(O)C(O)C8O)C(O)C7OC7OC(CO)C(O)C(O)C7O)C(C)(C)C6CCC5(C)C4(C)CC2O)C3C1 (centres undefined) | 2.15 | –
35 | CCN(CCO)CCCOc1ccc2c(Nc3cc(CC(=O)Nc4cccc(F)c4)[nH]n3)ncnc2c1 | > 100 | 31.8
36 | O=C(NNC(=O)c1ccccc1O)c1ccco1 | > 100 | –
37 | O=C1OC2(OC2c2ccc(Cl)cc2)c2ccccc21 (centres undefined) | > 100 | –
38 | CCCCCC(=Nc1n[nH]nc1C(N)=O)OCC | > 100 | –
39 | Oc1cccc(-c2nc(-c3ccccc3)[nH]c2-c2ccncc2)c1 | > 25 | > 21.4
40 | COC(=O)/C=C1\CCCN1CCc1cc2c(cc1CC#N)OCO2 | > 100 | –
41 | CSc1nc2nc(C(O)C(O)C(O)CO)cnc2c(=O)[nH]1 (centres undefined) | > 100 | –
42 | OCc1ccc(N(Cc2ccc(F)cc2)CC2CCC2)cc1Cl | 25 | 12.3
43 | COc1c(Br)cc(/C=C(\C#N)c2ccccn2)cc1Br | > 100 | –
44 | O=C1c2ccccc2C(=O)c2c1ccc1c2N=C(c2ccc(Br)cc2)CC(c2cccc3ccccc23)N1 (centres undefined) | > 100 | –
45 | Cn1cnc([N+](=O)[O-])c1Sc1nc2ccc([N+](=O)[O-])cc2[nH]1 | 73.9 | –
46 | Cn1ccoc1=Nc1ccc(Cl)c(Cl)c1 | > 10 | –
47 | O=C(/C=C/c1ccc(O)cc1)c1cc(Cl)ccc1O | > 100 | –
48 | O=C(NC(Cc1ccc(I)cc1)C(=O)O)c1ccc(Cl)cc1 (centres undefined) | > 100 | –
49 | COC(=O)[C@@H]1COC(C(C)(C)C)N1C(=O)C(c1ccccc1)c1ccccc1 (some centres undefined) | > 100 | –
50 | O=C1N(CN2CCOCC2)CN(CN2CCOCC2)C(=O)N1Cc1ccc(CN2C(=O)N(CN3CCOCC3)CN(CN3CCOCC3)C2=O)cc1 | > 100 | –
